{"source": "PubChem BioAssay AID504845", "about": "(National Center for Advancing Translational Sciences (NCATS), 2011)", "note": "About 150 (0.038%) of roughly 390,000 compounds were called active. Inconclusive results, whose numbers are uncertain, are shown with a selection of clear calls. Calls follow the shape of the dose curve; as a rule, active = well fitted inhibition curve with a large enough effect; inconclusive = small, poorly fitted or top-dose-only effect; inactive = no such curve, though single readings can be large or run the other way. Potencies of inconclusive entries are doubtful fits and often do not repeat. % is scaled to controls: 0 for no effect and ±100 for the full control effect; potency is read from the fitted curve at half-maximal effect; tags tell the direction and shape of the fitted curve."}
{"target": "Regulator of G-protein signaling 4 (Homo sapiens) (UniProt P49798)", "sequence (P49798 whole entry, looked up)": "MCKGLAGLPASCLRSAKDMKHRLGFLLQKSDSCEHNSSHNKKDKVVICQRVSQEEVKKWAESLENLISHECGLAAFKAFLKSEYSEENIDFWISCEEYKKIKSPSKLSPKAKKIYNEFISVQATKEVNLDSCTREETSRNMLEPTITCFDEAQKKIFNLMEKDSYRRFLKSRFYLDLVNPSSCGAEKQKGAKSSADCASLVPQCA", "assay": "Inhibitors of Regulator of G Protein Signaling (RGS) 4: qHTS; also: nearly all actives have a fitted effect of over 75% in size", "conditions": "Transcreener GDP fluorescence polarization, RGS4-accelerated GTP hydrolysis; series mostly up to 114 µM", "summary_of_the_method": "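MLSMR compounds (23 nl, pin-transferred) preincubated 10 min at room temperature with a 500nM (2x) first reagent, then RGS4 at 900nM (2x) plus Transcreener GDP mix added; fluorescence polarization (620/688 nm) read before and after 90 min at 30 °C.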"}
{"smiles": "COc1ccc(NC(=O)Cn2nnc(-c3nc(-c4ccncc4)no3)c2N)cc1OC", "Potency": "inconclusive: 17.8 µM [inhibitor, partial curve, poor fit]"}
{"smiles": "O=C1NC(=S)S/C1=C\\c1ccc(SCc2ccccc2)o1", "Potency": "inconclusive: 50.1 µM [inhibitor, partial curve, poor fit]"}
{"smiles": "CN1CCN(C2=Cc3ccccc3Oc3ccc(Cl)cc32)CC1", "Potency": "inconclusive: 0.0752 µM [inhibitor, full curve, poor fit]"}
{"smiles": "c1ccc(Nc2cccc(Nc3ccccc3)c2)cc1", "Potency": "inconclusive: 50.1 µM [inhibitor, partial curve, poor fit]"}
{"smiles": "CC(C)C1Nc2ccc(C(=O)O)cc2C2C=CCC21", "note": "(configuration not stated)", "Potency": "inconclusive: 35.5 µM [inhibitor, partial curve, poor fit]"}
{"smiles": "CCn1c(N)c(C(=O)NCC2CCCO2)sc1=S", "note": "(configuration not stated)", "Potency": "inconclusive: 100 µM [inhibitor, partial curve, poor fit]"}
{"smiles": "Cc1nc2ccccn2c1C(=O)CSc1ccccc1Cl", "Potency": "inactive"}
{"smiles": "CC(=O)c1cccc(NC(=O)COc2cc3oc(=O)c(CC(C)O)c(C)c3cc2Cl)c1", "note": "(configuration not stated)", "Potency": "inconclusive: 31.6 µM [inhibitor, full curve, poor fit]"}
{"smiles": "Cc1ccc(C(=O)CSc2nnc(-c3ccco3)n2C)cc1", "Potency": "inconclusive: 17.8 µM [inhibitor, full curve, poor fit]"}
{"smiles": "COc1cc(OC)cc(C(=O)NC2=NCCS2)c1", "Potency": "inactive"}
{"smiles": "Cc1ccc(C2=NC(=O)/C(=C/c3cc(O)c(O)c(Br)c3)S2)cc1", "Potency": "inconclusive: 100 µM [inhibitor, partial curve, poor fit]"}
{"smiles": "CCN1CCN(CCC(=O)Nc2ccccc2C)CC1", "Potency": "inconclusive: 89.1 µM [inhibitor, partial curve, poor fit]"}
{"smiles": "CC(=O)c1cccc(N=Cc2c(O)ccc3ccccc23)c1", "Potency": "inconclusive: 100 µM [inhibitor, partial curve, poor fit]"}
{"smiles": "CCC(C)(C)NC(=O)c1cccc(NC(=O)C(C)C)c1", "Potency": "inconclusive: 56.2 µM [inhibitor, partial curve, poor fit]"}
{"smiles": "C=CCn1c(N)c(C(=O)OC(C)(C)C)c2nc3ccccc3nc21", "Potency": "inactive"}
{"smiles": "CCOc1ccc(NC(=O)c2sc3nc4c(c(-c5ccc(OC)cc5)c3c2N)C(=O)CC(C)(C)C4)cc1", "Potency": "inactive"}
{"smiles": "Cc1ccc(C)c(OCC(=O)N/N=C/c2c(C)nn(-c3ccccc3)c2Cl)c1C", "Potency": "inactive"}
{"smiles": "CCCCS(=O)(=O)/C=C\\C=C/S(=O)(=O)CCCC", "Potency": "inconclusive: 50.1 µM [inhibitor, partial curve, poor fit]"}
{"smiles": "C=CCc1c(C)nc(-c2ccccc2)nc1N/N=C/c1ccccc1", "Potency": "inactive"}
{"smiles": "CN1CCN(C(=O)CN(Cc2ccc(Cl)cc2)S(C)(=O)=O)CC1", "Potency": "inactive"}
{"smiles": "COc1ccc(-n2c(C)nc(=O)c(-c3ccccc3)c2C)cc1", "Potency": "inconclusive: 79.4 µM [inhibitor, single point]"}
{"smiles": "CCOC(=O)N1CCN(C(=O)c2ccc([N+](=O)[O-])cc2Cl)CC1", "Potency": "inconclusive: 50.1 µM [inhibitor, partial curve, poor fit]"}
{"smiles": "O=C(c1ccc2c(=O)n(Cc3ccco3)c(=S)[nH]c2c1)N1CCCC1", "Potency": "inconclusive: 50.1 µM [inhibitor, partial curve, poor fit]"}
{"smiles": "N=C1/C(=C\\c2coc3ccccc3c2=O)C(=O)N=C2SC=CN12", "Potency": "inactive"}
{"smiles": "Cc1oc(-c2ccccc2Cl)nc1Cn1c(SCc2cccc(F)c2)nc2cccnc21", "Potency": "inactive"}
{"smiles": "O=C(Nc1ccccn1)c1cc2ccccc2cc1O", "Potency": "inconclusive: 100 µM [inhibitor, partial curve, poor fit]"}
{"smiles": "O=C(COC(=O)c1cccs1)NCCN1C(=O)CSC1=O", "Potency": "inactive"}
{"smiles": "N#CC1=C(N)C2=CCCC[C@H]2[C@H](c2ccc(Br)cc2)C1(C#N)C#N", "Potency": "inconclusive: 100 µM [inhibitor, partial curve, poor fit]"}
{"smiles": "CCC(=O)Nc1ccccc1Oc1ccccc1", "Potency": "inconclusive: 89.1 µM [inhibitor, partial curve, poor fit]"}
{"smiles": "FC(F)(F)c1ccccc1Nc1nccs1", "Potency": "inconclusive: 35.5 µM [inhibitor, partial curve, poor fit]"}
{"smiles": "CCn1c2ccccc2c2cc(NS(=O)(=O)c3ccccc3C)ccc21", "activity change, negative = inhibition": "inactive: -22.4% [at 11.4 µM]"}
{"smiles": "O=C(NCCN1C(=O)S/C(=C\\c2ccc(Cl)c(Cl)c2)C1=O)c1ccc2c(c1)C(=O)N(Cc1ccncc1)C2=O", "Potency": "inconclusive: 31.6 µM [inhibitor, full curve, poor fit]"}
{"smiles": "COCc1cc(C)nc(SCc2ccc(F)cc2)c1C#N", "Potency": "inconclusive: 79.4 µM [inhibitor, single point]"}
{"smiles": "COc1cccc(CNC(=O)Cc2c(C)c3ccc(OC)c(C)c3oc2=O)c1", "Potency": "inconclusive: 56.2 µM [inhibitor, partial curve, poor fit]"}
{"smiles": "O=C(c1ccc(Br)cc1)C(CN1CCOCC1)c1ccccc1", "note": "(configuration not stated)", "Potency": "inconclusive: 28.2 µM [inhibitor, full curve, poor fit]"}
{"smiles": "O=C(O)C1C2C=CC(C2)C1C(=O)NCc1ccc(Cl)cc1Cl", "note": "(configuration not stated)", "Potency": "inconclusive: 89.1 µM [inhibitor, single point]"}
{"smiles": "C[C@@H](NC(=O)OC(C)(C)C)c1nnc(S(=O)(=O)Cc2ccccc2)o1", "Potency": "inconclusive: 79.4 µM [inhibitor, single point]"}
{"smiles": "O=[N+]([O-])c1cccc(NC(=S)NCc2ccncc2)c1", "Potency": "inconclusive: 79.4 µM [inhibitor, partial curve, poor fit]"}
{"smiles": "CCCCCCCCCCC[N+](C)(C)CC/C=C1/c2ccccc2Sc2ccc(Cl)cc21", "Potency": "inactive"}
{"smiles": "O=C(c1cn(-c2ccccc2)nc1-c1ccc(F)cc1)N1CCOCC1", "Potency": "inactive"}
{"smiles": "O=S1(=O)CCOC[C@H](c2ccccc2)N1Cc1ccccc1", "Potency": "inactive"}
{"smiles": "O=C(NCCC(=O)N(Cc1ccco1)Cc1cccs1)c1ccc([N+](=O)[O-])cc1", "Potency": "inconclusive: 89.1 µM [inhibitor, single point]"}
{"smiles": "O=C(CC(=O)Nc1cccnc1)Nc1cccnc1", "Potency": "inactive"}
{"smiles": "COc1ccccc1N/C(N)=N/c1nc(CSc2ccc(C)cc2)cc(=O)[nH]1", "Potency": "inconclusive: 50.1 µM [inhibitor, partial curve, poor fit]"}
{"smiles": "COc1ccc(OCc2ccc(/C=N\\NC(=O)c3sccc3C)o2)cc1", "Potency": "inactive"}
{"smiles": "CC(=O)/C(C#N)=C1\\NC(=O)C(Cc2ccc(C)c(Cl)c2)S1", "note": "(configuration not stated)", "Potency": "inconclusive: 100 µM [inhibitor, partial curve, poor fit]"}
{"smiles": "COc1ccc(C(CCN2CCCC(C)C2)c2c(OC)cc(OC)c3c(-c4ccccc4)cc(=O)oc23)cc1", "note": "(configuration not stated)", "Potency": "inactive"}
{"smiles": "C=CCOc1ccc(C2C(C#N)=C(N)N(Nc3ccccc3)C3=C2C(=O)CCC3)cc1OC", "note": "(configuration not stated)", "Potency": "inactive"}
{"smiles": "Cc1ccc(-c2nn(-c3cccc(F)c3)cc2CN2CCN(c3ccccn3)CC2)o1", "Potency": "inconclusive: 70.8 µM [inhibitor, single point]"}
{"smiles": "COc1ccccc1NNC(=O)c1cc(C(C)(C)C)nn1Cc1ccccc1", "Potency": "inactive"}
{"smiles": "O=C(C[C@H]1C[C@H](C(=O)N2CCCCC2)[C@@]2(CCc3ccccc3)c3[nH]c4cc(-c5ccco5)ccc4c3CCN2C1=O)NCCC1=CCCCC1", "Potency": "inconclusive: 44.7 µM [inhibitor, partial curve, poor fit]"}
{"smiles": "FC(F)Oc1ccc(/C=N/n2c(Cc3ccc(Br)cc3)n[nH]c2=S)cc1", "Potency": "inconclusive: 50.1 µM [inhibitor, partial curve, poor fit]"}
{"smiles": "O=C(Cc1cccc2ccccc12)Nc1ccc(O)cc1C(=O)O", "Potency": "inconclusive: 100 µM [inhibitor, partial curve, poor fit]"}
{"smiles": "CCOc1ccc2c(c1)nc(SCC(=O)c1cccs1)n2C", "Potency": "inconclusive: 56.2 µM [inhibitor, partial curve, poor fit]"}
{"smiles": "O=C(Cn1c(=O)n(Cc2ccco2)c(=O)c2c3c(sc21)CCCC3)Nc1ccccc1", "activity change, negative = inhibition": "inactive: -30.6% [at 11.4 µM]"}
{"smiles": "N[C@H](CO)C(=O)O", "Potency": "inconclusive: 0.844 µM [inhibitor, partial curve, poor fit]"}
{"smiles": "O=c1c2cc(NC(=S)NC3CCCC3)ccc2nc2n1CCCCC2", "Potency": "inactive"}
{"smiles": "Nc1nnc(/C=C/c2ccccc2)s1", "Potency": "inconclusive: 89.1 µM [inhibitor, single point]"}
{"smiles": "COC(=O)c1sc(=S)n(-c2ccccc2)c1N", "Potency": "inconclusive: 79.4 µM [inhibitor, partial curve, poor fit]"}
{"smiles": "COC(=O)[C@H](C)NC(=O)NCCC1=CCCCC1", "Potency": "inconclusive: 50.1 µM [inhibitor, partial curve, poor fit]"}
{"smiles": "O=C(Cn1cc(C(F)(F)F)ccc1=O)NC(c1ccccc1)c1ccccc1", "Potency": "inconclusive: 89.1 µM [inhibitor, single point]"}
{"smiles": "C/C(CC(=O)Nc1ccc(C)c(Cl)c1)=N\\NC(=O)c1ccncc1", "Potency": "inactive"}
{"smiles": "Cc1[nH]c2ccccc2c1C1=CC(=O)C=CC1=O", "Potency": "inconclusive: 17.8 µM [inhibitor, full curve, poor fit]"}
{"smiles": "Cc1c(C(=O)NCCCN2CCCCC2)oc2ccc3c(c12)C(O)CC1(CCCCC1)O3", "note": "(configuration not stated)", "Potency": "inconclusive: 89.1 µM [inhibitor, single point]"}
{"smiles": "CCN(CC)Cc1cc(Nc2c3ccccc3nc3c4ccccc4n(C)c23)cc(CN(CC)CC)c1O", "Potency": "inconclusive: 79.4 µM [inhibitor, partial curve, poor fit]"}
{"smiles": "O=C(Nc1ccccc1)c1nnsc1S(=O)c1ccc(Cl)cc1", "note": "(configuration not stated)", "Potency": "inconclusive: 50.1 µM [inhibitor, partial curve, poor fit]"}
{"smiles": "O=c1cc(-c2ccc(O)cc2)oc2c1ccc1ccccc12", "Potency": "inconclusive: 79.4 µM [inhibitor, partial curve, poor fit]"}
